Data reported in PubChem BioAssay AID504339 (National Center for Advancing Translational Sciences (NCATS), 2011).
Screen size: about 390,000 compounds; about 17,000 (4.4%) were called active. This list was built around the results that the source calls inconclusive (neither active nor inactive); the mix of calls is not that of the screen. The call rests on the fitted dose curve; in most records, active means well fitted inhibition curve with a large enough effect; inconclusive means small, poorly fitted or top-dose-only effect; inactive means no such curve, though single readings can be large or run the other way. Potencies beside an inconclusive call are fits to weak or partial responses and may not hold up.

target: Lysine-specific demethylase 4A (Homo sapiens) (UniProt O75164); test: qHTS Assay for Inhibitors of JMJD2A-Tudor Domain; settings: AlphaScreen JMJD2A-Tudor / H3K4me3 peptide binding; activity change, negative = inhibition: at 114 µM (top of the series); further: nearly all actives have a fitted effect of over 50% in size
UniProt O75164, sequence (O75164 whole entry, looked up, the tested form may be a part): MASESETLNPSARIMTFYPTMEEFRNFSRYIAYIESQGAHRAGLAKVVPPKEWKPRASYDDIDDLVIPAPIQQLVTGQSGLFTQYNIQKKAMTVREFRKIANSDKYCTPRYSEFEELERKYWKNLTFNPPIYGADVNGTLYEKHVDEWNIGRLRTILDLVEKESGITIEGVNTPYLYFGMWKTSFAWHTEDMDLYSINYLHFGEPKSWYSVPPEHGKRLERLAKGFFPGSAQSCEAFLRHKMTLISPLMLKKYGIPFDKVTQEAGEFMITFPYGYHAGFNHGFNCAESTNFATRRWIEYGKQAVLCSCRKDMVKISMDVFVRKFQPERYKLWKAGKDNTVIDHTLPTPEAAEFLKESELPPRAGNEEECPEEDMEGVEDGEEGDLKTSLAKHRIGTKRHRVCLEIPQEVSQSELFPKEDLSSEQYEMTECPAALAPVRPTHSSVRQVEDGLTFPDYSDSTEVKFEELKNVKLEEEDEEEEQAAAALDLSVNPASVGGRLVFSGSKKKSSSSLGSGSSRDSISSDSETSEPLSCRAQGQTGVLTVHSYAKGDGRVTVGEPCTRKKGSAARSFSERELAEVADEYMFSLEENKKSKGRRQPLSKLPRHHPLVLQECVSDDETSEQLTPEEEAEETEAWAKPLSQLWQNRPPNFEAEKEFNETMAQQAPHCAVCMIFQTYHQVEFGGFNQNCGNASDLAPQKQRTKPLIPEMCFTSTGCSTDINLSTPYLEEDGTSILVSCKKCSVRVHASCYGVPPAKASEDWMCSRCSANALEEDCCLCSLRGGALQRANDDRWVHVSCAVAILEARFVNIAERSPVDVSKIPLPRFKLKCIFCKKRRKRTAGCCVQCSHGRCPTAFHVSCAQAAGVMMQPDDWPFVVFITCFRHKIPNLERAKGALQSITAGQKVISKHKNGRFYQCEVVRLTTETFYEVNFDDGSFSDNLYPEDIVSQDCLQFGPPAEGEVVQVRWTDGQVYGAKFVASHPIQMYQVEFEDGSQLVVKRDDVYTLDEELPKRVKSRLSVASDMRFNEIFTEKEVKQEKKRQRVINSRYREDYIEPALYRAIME
On the % scale 0 is the no-effect control and ±100 the full control effect; potency means the concentration at half of the fitted maximal effect; tags describe the fitted curve by direction and shape.

Potency, inconclusive:
COC(=O)C1=C(C)N(Cc2ccccc2)C(=NCc2ccc(OC)cc2)N[C@H]1c1ccccc1 20 µM [inhibitor, full curve]
O=C(CSCc1cnn(-c2ccccc2)c1-n1cccc1)N1CCN(Cc2ccccc2)CC1 39.8 µM [inhibitor, partial curve]
CC1(C)CC(=O)C(C(=O)/C=C/c2ccco2)C(=O)C1 12.6 µM [inhibitor, full curve]
Brc1ccc(C2Nc3cccc4cccc(c34)N2)cc1 22.4 µM [inhibitor, full curve]
Cc1nc(=O)c(-c2ccccc2)c(C)n1CCCO 70.8 µM [inhibitor, single point]
COc1cccc(N2CC(C)Cn3c2nc2c3c(=O)n(CCN3CCOCC3)c(=O)n2C)c1 (stereo not drawn) 89.1 µM [inhibitor, partial curve]
C=CCNC(=O)C(=O)NCC(c1ccc2c(c1)OCO2)N1CCN(c2ccc(F)cc2)CC1 (stereo not drawn) 22.4 µM [inhibitor, full curve]
Cc1ccc(Nc2nc(Nc3ccc(C)cc3)nc(SC3=NCCS3)n2)cc1 39.8 µM [inhibitor, partial curve]
COc1cc(-c2nc3ccccn3c2/N=C/c2ccc(F)cc2)ccc1O 50.1 µM [inhibitor, partial curve]
Cc1ccc(C2=NNC3(CCOC(C)(C)C3)S2)cc1 (stereo not drawn) 39.8 µM [inhibitor, partial curve]
O=C(CN1C(=O)N/C(=C\c2ccccc2OCc2ccc(C(=O)O)cc2)C1=O)Nc1ccccc1F 39.8 µM [inhibitor, full curve]
COC(=O)c1cc(=O)n(CCc2ccccc2F)c(=Nc2ccc(F)c(Cl)c2)s1 50.1 µM [inhibitor, partial curve, poor fit]
O=C(CCc1ccccc1)OCC(=O)c1cccc([N+](=O)[O-])c1 56.2 µM [inhibitor, partial curve]
O=C(O)CCC(=O)Nc1ccc(SSc2ccc(NC(=O)CCC(=O)O)cc2)cc1 89.1 µM [inhibitor, single point]
Cc1ccc(CSc2nc3ccncc3n2Cc2nc(-c3ccccc3C)oc2C)cc1 35.5 µM [inhibitor, full curve]
Cc1cc(C)c2cc(C#N)c(SCC(=O)NCc3ccco3)nc2c1 79.4 µM [inhibitor, single point]
CN(c1ccccc1)S(=O)(=O)c1cccc(NC(=O)c2ccc(Cl)c([N+](=O)[O-])c2)c1 10 µM [inhibitor, full curve, poor fit]
CC(C)Cn1c(O)c(/C=C2\C=NN=C2c2ccccc2)sc1=S 11.2 µM [inhibitor, full curve]
CCN(CC)C(=O)CC(c1ccc(OC)cc1)c1c(OC)cc(OC)c2c(-c3ccccc3)cc(=O)oc12 (stereo not drawn) 56.2 µM [inhibitor, partial curve]
COC(=O)CCSCC(=O)N1N=C(c2ccc(OC)cc2)CC1c1cccc(OC)c1OC (stereo not drawn) 56.2 µM [inhibitor, partial curve, poor fit]
Cc1ccc2c(c1)C1CN(C)CCC1N2C(=S)NC(=O)c1ccc(Br)cc1 (stereo not drawn) 22.4 µM [inhibitor, full curve]
CC(C)c1ccc2c(c1)C(=O)NC(C)(C)C2 22.4 µM [inhibitor, full curve]
COc1ccc(C2=CC(c3ccc(F)cc3)n3ncc(C(=O)Nc4ccc(C)cc4)c3N2)cc1 (stereo not drawn) 56.2 µM [inhibitor, partial curve]

Potency, active:
COC(=O)c1ccc(CSC2=NC[C@@H]3[C@@H]4C(=O)N(Cc5ccccc5)C(=O)[C@@H]4[C@](Cc4ccccc4)(C(=O)OC)N23)cc1 79.4 µM
Cc1ccc(C)c(OCCCNC2CCCC2)c1C 0.794 µM
CC(C)c1cc(CNC(=O)c2ccc(OC3CCN(Cc4ccccn4)CC3)cc2)on1 44.7 µM
Cc1ccc(CNC(=O)CSCc2cccc(F)c2)cc1 50.1 µM
COc1ccc(NC(=O)CSc2nnc(C3CC3)n2C)cc1 10 µM
CC(NCc1ccc([N+](=O)[O-])cc1)C1COc2ccccc2O1 (stereo not drawn) 7.94 µM

Activity change, negative = inhibition, inactive:
CCCOc1ccc(CNC(=O)C2CCN(C(=O)N3CCOc4ccccc43)CC2)cc1 -13.2%
Cc1ccc(/C=C/C(=O)Nc2cccc3cccnc23)o1 -30.7%
CCc1cccc(NS(=O)(=O)c2ccc3c(c2)N(CC(=O)OC)C(=O)CS3)c1 -5.17%
O=C(NCc1ccc(F)cc1)C(=O)NCC1OCCCN1S(=O)(=O)c1cccs1 (stereo not drawn) -8.22%
Cn1c(CCNC(=O)c2ccco2)nc2cc(NC(=O)c3ccco3)ccc21 3.01%
CCC(=O)NC(=S)NNC(=O)c1ccccc1[N+](=O)[O-] -9.28%
Cn1cc(C(=O)Nc2ccccn2)c(=O)c2ccccc21 0.699%
CCN1CCCC1CNC(=O)c1cc(NC(C)=O)c(N(C)C)cc1OC (stereo not drawn) -3.79%
CCCCOC(=O)C1C2C=C[C@]3(CN(CCCOC)C(=O)[C@H]13)O2 (stereo partly drawn) -9.06%
Cc1cc(NC(CC(C)C)C(=O)O)nc(Cc2ccccc2)n1 (stereo not drawn) 3.78%
O=C(N/N=C/c1ccncc1)c1nn(Cc2ccccc2)c(=O)c2ccccc12 -13.4%
CCn1ncc(S(=O)(=O)Nc2cccnc2)c1C -6.73%
Cc1ccc(Cl)cc1N1CCN(C(=O)c2cnc(N3CCOCC3)c3ccccc23)CC1 -24.5%
O=C1CN(C(=O)c2ccccc2Cl)c2ccccc2N1 -12.6%
Cn1cc(C(=O)Nc2ccc(Cl)c(Cl)c2)cn1 -9.46%
CC(C)CCNC(=O)CCCN1C(=O)c2ccccc2Sc2ncccc21 7.69%
O=C(COC(=O)Cc1ccccc1)NCc1ccc2c(c1)OCO2 -13.7%
CCOC(=O)c1nc2ccccc2s1 11.6%
CCOc1ccccc1CNS(=O)(=O)c1ccc2c(c1)CCCN2C(C)=O 4.84%
